To fix the notation:
B1: 134723116_134725800_2128_CDS_ENSMUSG00000060261_ENSMUST00000173341|mouse|control|control (ssRNA)
RNA: GGGAGUUCUACAGUCCGACGAUCAGGAGGCAAAUAGGACACAACUAGCUCAGGCUUUUUAACAACAAACUUGAUCUUAUUGCUGCCACGGACAAUCCUCUCGAGGCGUGGAAUCCCAAACCAGGUAGGGCUUCGGAAGGGGAUCAACAGAGGAUUGAGCAUCA
B2: chr18:6437031:6437032:-_ENSMUSG00000024240_ENSMUST00000028100|mus_mus|FALSE|FALSE (ssRNA)
RNA: GGGAGUUCUACAGUCCGACGAUCUGCAGUACUGUACAGAUAAUUGCUGUAUUCUUAAUUUACAGAUGUUGAUUUUUUCCUAUUAACAAUAAGAAAAGAAAGGUUGAAGCACGAGAGAUUCGAGAGCUGCGCAGUGCUGCCGAGCAACAGAGGAUUGAGCAUCA
B3: chr2:46810187:46810188:+_ENSG00000119729_ENST00000238738|hu_mus|FALSE|FALSE (ssRNA)
RNA: GGGAGUUCUACAGUCCGACGAUCGAAACGAAUAAUACUUUACUGUCUUGGUUCCUUCAGAUCAUAGGUUUGACAACUUAGCUCAUGUUAACUAUACAGUUUCUUCCAAUUCUAUCUAAAAACAGACCAAAACUAAAUGGGAAACAACAGAGGAUUGAGCAUCA
B4: chr7:79842110:79842111:+_ENSG00000127955_ENST00000351004|hu_hu|FALSE|FALSE (ssRNA)
RNA: GGGAGUUCUACAGUCCGACGAUCUAUAGUGAGAGGGCUCUUUUUGAUUUUUUCUUCAAAGAGAUCCUUCUUGUUUAGAAAAAGUAUAAUGGAUGUAUCUGUAAACCACUUGUUGUUACAUAUGCUGUCAAACAAUUUCAUGCUCAACAGAGGAUUGAGCAUCA
B5: chr11:46405157:46405158:+_ENSG00000110492_ENST00000395566|hu_hu|hu_hu_hu_mus_False|28_108 (ssRNA)
RNA: GGGAGUUCUACAGUCCGACGAUCCCCUUAGGGGUGGGGGCACUUGGUGUGGGCGUGAGAGGACAGGCGUGAUUGACAGAGCUGACAGGAAGACAAAAGGCACUGGUGGGUCACAUCUUGGGCCUGUGGGAGAGGAGGGCUCCGCAACAGAGGAUUGAGCAUCA
B6: chr2:113286301:113286302:+_ENSG00000114999_ENST00000233336|hu_hu|motif|central (ssRNA)
RNA: GGGAGUUCUACAGUCCGACGAUCAGCUGGCUGGGUCUGAGGUUGCUCCACAUCUGGGGGUGGGAAGACACUGGAAAUGGCGGUGUCCACGAUGCCUUGGCACAGUUCUGCAUAGAGCUUCUGAGCACAUGCAGGGGCACCGUUCAACAGAGGAUUGAGCAUCA

The list shows a part of the results.

The target of this assay is T1, UNK ZnF1-3 (human, UniProt Q9C0B0 31-174).
T1 sequence: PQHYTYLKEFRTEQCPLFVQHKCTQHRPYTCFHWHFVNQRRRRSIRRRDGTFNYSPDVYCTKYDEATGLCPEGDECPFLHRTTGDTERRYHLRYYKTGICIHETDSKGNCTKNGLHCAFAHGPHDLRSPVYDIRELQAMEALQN
The assay is described as follows: nsRBNS (natural sequence RNA bind-n-seq); RBNS binding buffer (assumed for nsRBNS): 25 mM Tris pH 7.5, 150 mM KCl, 3 mM MgCl2, 0.01% Triton X-100, 500 ug/ml BSA, 20 U/ml SUPERase-In, 4 C; UNK is unkempt and MSI1 is Musashi-1; names of the RNAs are library labels; protein concentration not given here; high values mean tight binding.
The molecule B1 had a binding signal of 0.963 enrichment R. The value for B2 was 0.891 enrichment R; that for B3 was 0.866 enrichment R; that for B4 was 0.443 enrichment R. For the molecule B5, the binding signal was found to be 3.18 enrichment R.

With B6, the binding signal worked out at 1.26 enrichment R.
